Experiment [1] has as its target T1, IMPα5, yeast two-hybrid fusion (Arabidopsis) (UniProt Q9FJ09).
T1 sequence: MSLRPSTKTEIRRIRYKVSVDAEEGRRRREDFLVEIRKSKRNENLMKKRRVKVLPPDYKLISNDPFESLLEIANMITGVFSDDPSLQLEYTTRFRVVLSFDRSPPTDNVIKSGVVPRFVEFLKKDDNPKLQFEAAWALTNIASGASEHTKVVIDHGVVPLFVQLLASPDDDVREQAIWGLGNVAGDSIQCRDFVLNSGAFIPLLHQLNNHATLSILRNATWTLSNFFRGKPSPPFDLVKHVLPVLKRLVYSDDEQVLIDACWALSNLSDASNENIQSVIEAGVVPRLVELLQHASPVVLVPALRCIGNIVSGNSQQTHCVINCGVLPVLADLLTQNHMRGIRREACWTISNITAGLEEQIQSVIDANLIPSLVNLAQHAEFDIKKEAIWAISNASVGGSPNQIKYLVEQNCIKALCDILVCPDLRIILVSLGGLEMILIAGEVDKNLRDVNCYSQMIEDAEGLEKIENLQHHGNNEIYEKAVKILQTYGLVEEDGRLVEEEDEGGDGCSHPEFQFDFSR
Briefly: two-hybrid; split-ubiquitin-based yeast two-hybrid (SUB-Y2H, Dualsystems); IMPs in the pGADT7 bait vector, EIN2C in the pGBKT7 prey vector.

Chains of the proteins cited; added tags and fusions are not shown.
UniProt O04294: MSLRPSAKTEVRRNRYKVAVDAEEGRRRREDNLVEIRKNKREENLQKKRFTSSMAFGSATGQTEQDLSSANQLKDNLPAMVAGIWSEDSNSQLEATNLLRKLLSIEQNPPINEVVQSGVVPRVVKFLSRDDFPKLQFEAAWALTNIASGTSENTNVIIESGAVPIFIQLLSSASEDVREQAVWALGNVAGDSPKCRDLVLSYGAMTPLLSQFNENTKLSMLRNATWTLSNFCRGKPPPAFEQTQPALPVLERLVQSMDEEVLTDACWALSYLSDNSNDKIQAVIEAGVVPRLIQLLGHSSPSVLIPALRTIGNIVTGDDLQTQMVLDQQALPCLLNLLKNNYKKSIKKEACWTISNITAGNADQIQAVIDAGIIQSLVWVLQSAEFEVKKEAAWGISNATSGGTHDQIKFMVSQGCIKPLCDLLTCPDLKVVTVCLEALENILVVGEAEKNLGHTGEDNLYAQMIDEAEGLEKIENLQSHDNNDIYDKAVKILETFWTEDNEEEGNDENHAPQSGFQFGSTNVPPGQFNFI

The target of experiment [2] is T2, IMPα7, yeast two-hybrid fusion (Arabidopsis) (UniProt Q9M9X7).
T2 sequence: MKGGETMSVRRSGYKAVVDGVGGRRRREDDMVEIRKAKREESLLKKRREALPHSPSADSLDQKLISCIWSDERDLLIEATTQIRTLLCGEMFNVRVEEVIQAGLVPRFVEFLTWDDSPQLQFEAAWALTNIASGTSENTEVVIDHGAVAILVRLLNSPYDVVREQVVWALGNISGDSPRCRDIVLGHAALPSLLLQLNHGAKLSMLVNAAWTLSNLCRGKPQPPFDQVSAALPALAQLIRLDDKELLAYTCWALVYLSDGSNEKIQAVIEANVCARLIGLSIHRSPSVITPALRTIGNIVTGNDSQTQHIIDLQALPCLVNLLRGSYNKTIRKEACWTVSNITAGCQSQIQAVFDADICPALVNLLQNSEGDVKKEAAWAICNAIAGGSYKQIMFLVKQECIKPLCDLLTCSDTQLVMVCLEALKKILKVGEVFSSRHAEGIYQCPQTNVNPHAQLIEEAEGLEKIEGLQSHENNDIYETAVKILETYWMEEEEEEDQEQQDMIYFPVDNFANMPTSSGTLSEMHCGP
The experiment is described as above.

Experiment [3] has as its target T3, Importin β1 (IMPβ1), yeast two-hybrid fusion (Arabidopsis) (UniProt Q9FJD4).
T3 sequence: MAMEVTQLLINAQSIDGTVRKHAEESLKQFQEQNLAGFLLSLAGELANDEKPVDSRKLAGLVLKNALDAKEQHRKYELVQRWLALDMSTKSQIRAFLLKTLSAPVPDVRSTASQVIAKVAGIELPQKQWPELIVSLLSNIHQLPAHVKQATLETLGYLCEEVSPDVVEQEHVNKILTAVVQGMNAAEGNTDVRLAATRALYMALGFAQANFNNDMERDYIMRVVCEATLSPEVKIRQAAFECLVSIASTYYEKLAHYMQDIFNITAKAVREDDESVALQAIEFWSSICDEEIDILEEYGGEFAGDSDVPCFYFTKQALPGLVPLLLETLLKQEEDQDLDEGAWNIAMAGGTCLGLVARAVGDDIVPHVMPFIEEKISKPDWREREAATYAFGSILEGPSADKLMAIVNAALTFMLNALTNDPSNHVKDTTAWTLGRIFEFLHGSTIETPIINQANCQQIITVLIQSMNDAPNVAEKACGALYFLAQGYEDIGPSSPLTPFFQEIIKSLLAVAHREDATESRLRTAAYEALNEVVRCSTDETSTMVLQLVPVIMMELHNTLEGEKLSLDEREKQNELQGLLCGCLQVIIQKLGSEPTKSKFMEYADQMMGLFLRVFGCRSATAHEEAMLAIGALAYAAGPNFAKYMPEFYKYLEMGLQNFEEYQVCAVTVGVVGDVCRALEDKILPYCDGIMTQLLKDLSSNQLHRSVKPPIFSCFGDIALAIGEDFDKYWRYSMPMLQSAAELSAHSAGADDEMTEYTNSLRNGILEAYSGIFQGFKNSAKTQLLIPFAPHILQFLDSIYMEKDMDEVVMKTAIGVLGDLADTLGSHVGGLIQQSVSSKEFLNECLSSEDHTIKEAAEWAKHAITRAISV
The description is as above.

Experiment [4] concerns the target IMPα3, yeast two-hybrid fusion (Arabidopsis) (UniProt O04294). The experiment is described as above.
Experiment [5] addresses T4, IMPβ1 fused to Luc^N (Arabidopsis) (UniProt Q9FJD4).
T4 sequence: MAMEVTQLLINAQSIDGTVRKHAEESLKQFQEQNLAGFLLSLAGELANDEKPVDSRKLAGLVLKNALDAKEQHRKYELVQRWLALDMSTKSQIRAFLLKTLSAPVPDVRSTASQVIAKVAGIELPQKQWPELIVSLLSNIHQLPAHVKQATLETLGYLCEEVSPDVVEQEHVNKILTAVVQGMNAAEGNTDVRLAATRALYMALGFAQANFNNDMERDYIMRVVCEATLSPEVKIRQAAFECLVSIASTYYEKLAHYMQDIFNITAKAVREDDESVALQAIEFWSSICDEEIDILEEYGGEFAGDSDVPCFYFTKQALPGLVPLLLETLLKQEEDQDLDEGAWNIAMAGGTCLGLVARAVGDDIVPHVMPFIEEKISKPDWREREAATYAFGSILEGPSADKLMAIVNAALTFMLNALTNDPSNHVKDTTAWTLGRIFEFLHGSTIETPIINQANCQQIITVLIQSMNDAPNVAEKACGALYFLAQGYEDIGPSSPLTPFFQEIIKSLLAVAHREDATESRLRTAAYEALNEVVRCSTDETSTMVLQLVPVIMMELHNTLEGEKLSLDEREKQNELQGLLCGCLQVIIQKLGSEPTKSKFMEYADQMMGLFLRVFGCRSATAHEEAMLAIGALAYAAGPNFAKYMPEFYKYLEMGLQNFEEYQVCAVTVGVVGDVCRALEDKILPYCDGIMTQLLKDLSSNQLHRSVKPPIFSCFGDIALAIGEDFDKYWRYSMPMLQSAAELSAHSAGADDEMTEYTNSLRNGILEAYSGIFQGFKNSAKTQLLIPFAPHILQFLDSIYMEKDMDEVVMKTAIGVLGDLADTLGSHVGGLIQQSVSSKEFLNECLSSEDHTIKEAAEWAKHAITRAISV
As to the kind of experiment: split reporter; split luciferase (luciferin living fluorescence imaging, LLFI) on N. benthamiana leaves; Luc^N and Luc^C fusions.

No constants are given. Whether binding was seen depends on the method and setting. For some assays here: Binding seen in cells or lysates may run through a third protein. Some entries that bind do so weakly or less than the wild type. Tags and fused reporters may be left off the sequences shown.

B1: EIN2C (EIN2^454–1294), yeast two-hybrid fusion (domain or fragment, UniProt Q9S814 454-1294)
chain: LWLAATPLKSASNRAEAQIWNMDAQNALSYPSVQEEEIERTETRRNEDESIVRLESRVKDQLDTTSVTSSVYDLPENILMTDQEIRSSPPEERELDVKYSTSQVSSLKEDSDVKEQSVLQSTVVNEVSDKDLIVETKMAKIEPMSPVEKIVSMENNSKFIEKDVEGVSWETEEATKAAPTSNFTVGSDGPPSFRSLSGEGGSGTGSLSRLQGLGRAARRHLSAILDEFWGHLYDFHGQLVAEARAKKLDQLFGTDQKSASSMKADSFGKDISSGYCMSPTAKGMDSQMTSSLYDSLKQQRTPGSIDSLYGLQRGSSPSPLVNRMQMLGAYGNTTNNNNAYELSERRYSSLRAPSSSEGWEHQQPATVHGYQMKSYVDNLAKERLEALQSRGEIPTSRSMALGTLSYTQQLALALKQKSQNGLTPGPAPGFENFAGSRSISRQSERSYYGVPSSGNTDTVGAAVANEKKYSSMPDISGLSMSARNMHLPNNKSGYWDPSSGGGGYGASYGRLSNESSLYSNLGSRVGVPSTYDDISQSRGGYRDAYSLPQSATTGTGSLWSRQPFEQFGVAERNGAVGEELRNRSNPINIDNNASSNVDAEAKLLQSFRHCILKLIKLEGSEWLFGQSDGVDEELIDRVAAREKFIYEAEAREINQVGHMGEPLISSVPNCGDGCVWRADLIVSFGVWCIHRVLDLSLMESRPELWGKYTYVLNRLQGVIDPAFSKLRTPMTPCFCLQIPASHQRASPTSANGMLPPAAKPAKGKCTTAVTLLDLIKDVEMAISCRKGRTGTAAGDVAFPKGKENLASVLKRYKRRLSNKPVGMNQDGPGSRKNVTAYGSLG
Consider B1, for which the binding result in experiment [1] is listed as “no binding”; in experiment [2] it was “no binding”; in experiment [3] it was “binds”; in experiment [4] it was “no binding”.

B2: EIN2C fused to Luc^C (domain or fragment, UniProt Q9S814 454-1294)
chain: LWLAATPLKSASNRAEAQIWNMDAQNALSYPSVQEEEIERTETRRNEDESIVRLESRVKDQLDTTSVTSSVYDLPENILMTDQEIRSSPPEERELDVKYSTSQVSSLKEDSDVKEQSVLQSTVVNEVSDKDLIVETKMAKIEPMSPVEKIVSMENNSKFIEKDVEGVSWETEEATKAAPTSNFTVGSDGPPSFRSLSGEGGSGTGSLSRLQGLGRAARRHLSAILDEFWGHLYDFHGQLVAEARAKKLDQLFGTDQKSASSMKADSFGKDISSGYCMSPTAKGMDSQMTSSLYDSLKQQRTPGSIDSLYGLQRGSSPSPLVNRMQMLGAYGNTTNNNNAYELSERRYSSLRAPSSSEGWEHQQPATVHGYQMKSYVDNLAKERLEALQSRGEIPTSRSMALGTLSYTQQLALALKQKSQNGLTPGPAPGFENFAGSRSISRQSERSYYGVPSSGNTDTVGAAVANEKKYSSMPDISGLSMSARNMHLPNNKSGYWDPSSGGGGYGASYGRLSNESSLYSNLGSRVGVPSTYDDISQSRGGYRDAYSLPQSATTGTGSLWSRQPFEQFGVAERNGAVGEELRNRSNPINIDNNASSNVDAEAKLLQSFRHCILKLIKLEGSEWLFGQSDGVDEELIDRVAAREKFIYEAEAREINQVGHMGEPLISSVPNCGDGCVWRADLIVSFGVWCIHRVLDLSLMESRPELWGKYTYVLNRLQGVIDPAFSKLRTPMTPCFCLQIPASHQRASPTSANGMLPPAAKPAKGKCTTAVTLLDLIKDVEMAISCRKGRTGTAAGDVAFPKGKENLASVLKRYKRRLSNKPVGMNQDGPGSRKNVTAYGSLG
For the molecule B2, the binding result in experiment [5] is recorded as “binds”.

(Values after publication PMC10217940.)
